These compounds were tested on Lemna paucicostata (assay: Lemna test: FT-IR spectra of treated whole plants, hierarchical clustering (Ward's algorithm) for mode of action). Conditions: 10^-5 M and 10^-6 M, 48 hours of treatment.
Procedure: For the Lemna test, stock cultures of Lemna paucicostata (L.) Hegelm. (collection Prof. R. Kandeler, University of Vienna, Austria) were propagated mixotrophically in an inorganic medium containing sucrose (K. Grossmann, Pest Management Science 61: 423-431, 2005). The bioassay was conducted under aseptic conditions in plastic Petri dishes (5 cm in diameter, six replicates) which contained 15 ml medium without sucrose. The test compounds were added to the dishes in acetone solution at concentrations of 10^−5M and 10^−6M, and the organic solvent allowed to volatize before loading them with ca. 120 fronds each.
The following compounds were applied: Topramezone (inhibitor of carotenoid synthesis), picolinafen (inhibitor of carotenoid synthesis), diuron (inhibitor of photosystem II), and chlorsulfuron (inhibitor of acetolactate synthase). Controls received corresponding amounts of acetone alone.
The culture dishes were then closed with plastic lids and incubated under continuous light (Philips T L white neon tubes, 40 μmol m^−2 s^−1 photon irradiance, 400 to 750 nm) in a growth chamber at 25° C. After 48 hours of treatment with cornpounds, plants from three replicate dishes were sampled (200 mg total fresh weight) in microtubes. The microtubes were placed in a holder fabricated from brass (compare FIG. 3) and freeze-dried. After the additions of one steel ball to each tube the lemna were ground in a bead mill processing 96 tubes in parallel. The resulting powder was resuspended in water and transferred to a 96-“well” silicon plate. After drying of the plate the FT-IR spectra were recorded.

SMILES | assignment of spectral changes in the dendrogram of IR spectra (FIG. 7)
COc1nc(C)nc(NC(=O)NS(=O)(=O)c2ccccc2Cl)n1 [chlorsulfuron] | clear separation of spectral changes by the carotenoid synthesis inhibitors to those induced by compounds with different mode of action
CN(C)C(=O)Nc1ccc(Cl)c(Cl)c1 [diuron] | clear separation of spectral changes by the carotenoid synthesis inhibitors to those induced by compounds with different mode of action
O=C(Nc1ccc(F)cc1)c1cccc(Oc2cccc(C(F)(F)F)c2)n1 [picolinafen] | assigned spectral changes induced by the carotenoid synthesis inhibitor topramezone to those of picolinafen
Cc1c(C(=O)c2cnn(C)c2O)ccc(S(C)(=O)=O)c1C1=NOCC1 [topramezone, Topramezone] | assigned spectral changes induced by the carotenoid synthesis inhibitor topramezone to those of picolinafen

These compounds were tested on Megoura viciae (assay: FT-IR spectra of treated vetch aphids, hierarchical clustering (Ward's algorithm) for mode of action). Conditions: aphids on sprayed broad bean leaf disks, 0.3 ppm to 2500 ppm, 24-48 hours; with only a few exceptions.
Procedure: Each well of a 12-well microtiterplate (supplier: TPP, wells: φ 22.2 mm) was filled with 1.4 ml of 0.8% Agar-Agar containing 2.5 ppm of the fungicide Opus to avoid fungal infections of the Agar-Agar.
After cooling a 20 mm broad bean (viciae faba) leaf disk was placed on the agar (bottom side up).
Ultrasonic-spraying with concentrations between 0.3 ppm and 2500 ppm of the corresponding substances was used to treat the leaf discs. The standard volume application rate was 20 μl with different concentrations of substances dissolved in a 1:1 acetone/water mixture.
For the negative controls leaf discs were treated with a 1:1 acetone/water mixture.
The sprayed microtiterplates were either stored under a fume hood for a quick dry (app. 2-4 hours) or overnight in a climatized test chamber at 23±1° C., 50±5% RH and 3500±500 lux of fluorescent bulb light (app. 12 hours).
After the drying of the leaf disks approx. 30 aphids (Megoura viciae) were placed on each leaf disk.
The top side of the microtiterplates was covered by cellulose and the associated lids. In order to prevent the wells from too much moisture each lid had twelve 4 mm-holes drilled centric atop the wells.
The treated microtiterplates were incubated for 24-48 hours in a climatized test chamber at 23±1° C., 50±5% RH and 3500±500 lux of fluorescent bulb light.
Insects were collected using a home-made teflon-block with 12 millcutted funnels. On the bottom of each funnel a collection mictrotube was mounted by means of a small piece of silicon tube. The whole block (=aphid collection device, ACD) was then attached to the microplate (see FIG. 2). The ensemble was flipped and aphids were transferred into the collection tubes. The tubes were closed with perforated caps, placed in a holder fabricated from brass (FIG. 3), cooled down in liquid nitrogen and freeze-dried for one day (Freeze Dryer Christ ALPHA 2-4 approx. 0.024 mbar). A steel ball was added to each tube. After closing the tubes (this time using an intact cap) the aphids were ground for 2 min with 25 Hz in a bead mill (TissueLyser from Qiagen) processing up to 96 tubes in parallel. The resulting powder was resuspended in the microtubes after the addition of 300 μl Baker water.
10 μl from the suspension above were transferred to a measuring position of a silicon 96-“well”plate (instead of the whole suspension it was also possible to use only the supernatant as sample for the IR measurements). By means of the pipette tip the samples were distributed within the whole area of the corresponding imprinted ring. Each sample was such applied to seven different positions, 12-13 samples could be processed on one single plate (see FIG. 5). The silicon plate was dried at 60° C. for 60 minutes, equilibrated to room temperature for 5 minutes and immediately subjected to measurement.
The infrared spectra were recorded in transmission on a Bruker TENSOR 27 FT-IR spectrometer with an attached high throughput screening extension HTS-XT. The spectrometer was controlled by the OPUS software package from BrukerOptics. The following parameters were used to record the FT-IR spectra: spectroscopic region: 4000-400 cm^−1, resolution 8 cm^−1, 16 scans per well, aperture 6 mm, mirror speed 10 kHz.
With the IR spectra a simple hierarchical clustering using Ward's algorithm was performed. […] The treated samples were again split up mainly into three groups.

SMILES | group of the dendrogram of IR spectra (FIG. 6) the treated samples fall into
Cc1c(COC(=O)[C@@H]2[C@H](/C=C(\Cl)C(F)(F)F)C2(C)C)cccc1-c1ccccc1 (racemic) [bifenthrin] | group b), including most of the sodium channel modulators
C/C(=N\C#N)N(C)Cc1ccc(Cl)nc1 [acetamiprid] | group a), comprising the compounds acting on the nicotinic acetylcholine receptor
CC1(C)C(C=C(Cl)Cl)C1C(=O)OC(C#N)c1cccc(Oc2ccccc2)c1 (stereo not shown) [cypermethrin] | group b), including most of the sodium channel modulators
CC1(C)[C@H](C(=O)O[C@H](C#N)c2cccc(Oc3ccccc3)c2)[C@@H]1C=C(Br)Br [deltamethrin] | group b), including most of the sodium channel modulators
N#Cc1nn(-c2c(Cl)cc(C(F)(F)F)cc2Cl)c(N)c1[S+]([O-])C(F)(F)F (stereo not shown) [fipronil] | group c), representing mainly the GABA-gated chloride channel antagonists
O=[N+]([O-])NC1=NCCN1Cc1ccc(Cl)nc1 [imidacloprid] | group a), comprising the compounds acting on the nicotinic acetylcholine receptor
CC1(C)C(C=C(Cl)Cl)C1C(=O)OCc1cccc(Oc2ccccc2)c1 (stereo not shown) [permethrin] | group b), including most of the sodium channel modulators
N#C/N=C1\SCCN1Cc1ccc(Cl)nc1 [thiacloprid] | group a), comprising the compounds acting on the nicotinic acetylcholine receptor
CN1COCN(Cc2cnc(Cl)s2)/C1=N\[N+](=O)[O-] [thiamethoxam] | group a), comprising the compounds acting on the nicotinic acetylcholine receptor

Source: US20110160594A1 (priority 2008, published 2011)
